# Results published in PubChem BioAssay AID485344 (National Center for Advancing Translational Sciences (NCATS), 2010).
# The campaign covered roughly 340,000 compounds. About 6,900 (2%) were called active. No stated cut-off is given here; in the data, active means inhibition above about 30%; inactive means below that, where a call was filed. The entries are a selection whose mix differs from that of the whole data set. Entries without a call were filed so in the source.
# Target: D(2) dopamine receptor (Homo sapiens) (UniProt P14416)
# Sequence of UniProt P14416 (P14416 whole entry, looked up): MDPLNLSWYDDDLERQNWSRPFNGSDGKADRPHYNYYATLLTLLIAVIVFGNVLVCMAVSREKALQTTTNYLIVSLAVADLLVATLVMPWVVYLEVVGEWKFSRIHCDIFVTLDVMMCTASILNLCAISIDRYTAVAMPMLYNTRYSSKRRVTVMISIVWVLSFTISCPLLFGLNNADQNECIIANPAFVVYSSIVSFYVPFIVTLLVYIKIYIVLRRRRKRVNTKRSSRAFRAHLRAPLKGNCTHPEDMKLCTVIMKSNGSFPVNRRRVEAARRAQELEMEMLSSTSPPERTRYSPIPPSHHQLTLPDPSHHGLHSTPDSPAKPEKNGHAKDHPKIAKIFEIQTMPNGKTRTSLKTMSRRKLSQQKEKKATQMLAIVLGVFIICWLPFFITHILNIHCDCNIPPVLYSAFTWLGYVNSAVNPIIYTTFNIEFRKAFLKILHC
# Experiment: HTS Assay for Allosteric Antagonists of the Human D2 Dopamine Receptor: Primary Screen for Antagonists; further: 0% is about no effect
# Details: HEK293 TREx D2 cells, calcium flux, dopamine EC80; at 10 µM; stronger effect = higher value
# Procedure, shortened: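 Tetracycline-induced HEK293 TREx cells expressing D2 receptor forced-coupled to calcium signalling, loaded with no-wash calcium dye. Compounds added and calcium flux read 180 s, then dopamine added at EC80 and read a further 180 s.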
row,SMILES,inhibition
1,CCc1ccccc1NC(=O)c1ccc2c(c1)nnn2C1CCCC1,8.24%
2,CCOc1ccccc1NC(=O)CN1C(=O)COc2ccc(S(=O)(=O)NC3CCCC3)cc21,6.32%
3,NC(=O)c1nc(-c2ccc(F)c(F)c2)nc2c1[nH]c(=O)n2-c1cccc(Cl)c1,0.623%
4,CCN1CCN(CCCNC(=O)c2cnn(-c3ccc(C)cc3C)c2C2CCN(C(=O)OC(C)(C)C)CC2)CC1,-1.13%
5,O=S(=O)(c1ccc(Br)cc1)c1nnn2c1nc(N1CCOCC1)c1sccc12,-2.89%
6,Cc1ccc(C(=O)Nc2ccc3nc(SCC(=O)N4CCCc5ccccc54)sc3c2)cc1,0.679%
7,O=C(COC(=O)c1cc(-c2ccccc2)nc2ccccc12)c1ccc(Br)cc1,2.03%
8,CSc1nc2sc3c(c2c(=O)n1Cc1ccccc1)CCC(C(C)(C)C)C3 (stereo unspecified),-3.24%
9,Cc1c(C(=O)NCc2cccc(Cl)c2)sc2nc3n(c(=O)c12)CCC3,4.45%
10,Cc1cn2c(=O)cc(COc3ccccc3NC(=O)c3ccco3)nc2s1,-16.3%
11,Cc1ccc(S(=O)(=O)NC2(C(F)(F)F)C(=O)Nc3c2c(=O)[nH]c(=O)n3-c2ccccc2)cc1 (stereo unspecified),10.5%
12,CCOc1sc2nc(C)n(CC(=O)Nc3cccc(C)c3)c(=O)c2c1C,-14.9%
13,COc1ccc(OCc2nc3ccccc3n2Cc2ccccc2Cl)cc1,0.768%
14,COC(=O)c1ccccc1NC(=O)c1c(C)oc2ncn(C)c(=O)c12,3.39%
15,CCCCC(=O)N(c1ccc2oc(C)c(C(C)=O)c2c1)S(=O)(=O)c1ccc(F)cc1C,15.2%
16,CCOc1cc(C(=O)OCc2cc(=O)n3nc(CC)sc3n2)cc(OCC)c1OCC,-10.5%
17,CCN1CCc2nc3sc(C(=O)Nc4cccc(Cl)c4C)c(N)c3cc2C1,-1.42%
18,CC1CCC(C(=O)NC(C(=O)OCC(=O)c2ccccc2)C(C)C)CC1 (stereo unspecified),-5.91%
19,CCN1CCCC(NC(=O)c2cc([N+](=O)[O-])ccc2OC)C1 (stereo unspecified),active: 38.5%
20,CCc1cnc2c(c1SCC(=O)c1ccccc1)c(=O)n(C)c(=O)n2C,-25.1%
21,Cc1ccc(C2=NN(C(=O)CSc3nnnn3C)C(c3ccco3)C2)cc1 (stereo unspecified),active: 42.8%
22,CCC1=Nc2cc(C(=O)NCCCOC)ccc2Sc2ccc(Br)cc21,-7.24%
23,CC(C)CC(=O)Nc1cccc(-c2nc3ccccc3[nH]2)c1,4.2%
24,CCCCc1ccc(NC(=S)NCCc2ccc(F)cc2)cc1,active: 30.5%

row,SMILES,inhibition
1,COc1ccccc1CNc1nc(-c2ccco2)nn1S(=O)(=O)c1ccc2ccccc2c1,-7.71%
2,COCCCNC(=O)c1oc2c(c1C)-c1nn(Cc3ccccc3Cl)cc1CC2,3.47%
3,CNC(=O)C1CCC(Cn2c(=O)c3sccc3n(CC(=O)NCc3ccccc3)c2=O)CC1 (stereo unspecified),13.1%
4,Cc1ccccc1C(=O)Nc1sc2c(c1C(=O)NCc1ccco1)CCC(C(C)(C)C)C2 (stereo unspecified),6.15%
5,Cc1ccc(SCCNC(=O)CN(c2ccccc2)S(=O)(=O)N(C)C)cc1,10.8%
6,CCOC(=O)COc1ccc([N+](=O)[O-])cc1-c1ccnc2cc(-c3ccc(Cl)cc3)nn12,5%
7,CN(C)c1ccc(C(CNC(=O)c2ccccc2)N2CCc3ccccc32)cc1 (stereo unspecified),-5.94%
8,CCc1ccc(CN(Cc2ccco2)c2cnc(S(C)(=O)=O)nc2C(=O)Nc2cccc(C)c2)cc1,-8.9%
9,Cc1cccc(N2CCN(Cc3ccoc3)CC2)c1C,active: 67%
10,COc1ccc(NC(=O)C(=O)NCCc2csc(-c3ccc(Cl)cc3)n2)cc1OC,11.7%
11,COc1ccccc1NC(=O)C(=O)NCC(c1ccc2c(c1)OCO2)N1CCN(C)CC1 (stereo unspecified),3.31%
12,CCN1CCN(c2ncc3c(n2)CCN(Cc2cc(F)cc(F)c2)C3)CC1,-2.55%
13,CCOc1cc2sc(N3CCC(C(=O)Nc4ccc(C)cc4C)CC3)nc2cc1Br,9.35%
14,COc1ccc(-c2nc3scc(CCNS(=O)(=O)c4ccc(C)cc4)n3n2)cc1,-10.4%
15,C=C(C)C(=O)Nc1nnc(-c2ccccc2C)s1,active: 52.4%
16,CC(C)OCCCn1c(=O)c2ccccc2n2c(-c3ccc(F)cc3)nnc12,-18.4%
17,Cn1c(=NC(=O)c2ccc(S(=O)(=O)N3CCCc4ccccc43)cc2)sc2cc(F)ccc21,0.923%
18,COc1ccc(S(=O)(=O)N(CC(=O)Nc2ccccc2Br)Cc2ccccc2)cc1,5.92%
19,CCOC(=O)c1ccc[n+](CC(=O)Nc2cc(C(F)(F)F)ccc2Cl)c1,active: 52.5%
20,Cc1cccc(C(=O)Nc2c(-c3ccccc3)nc3cc(C)ccn23)c1,11.1%
21,Cc1ccc(Cl)cc1NC(=O)c1cnc(N2CCCCC2)c2ccccc12,-12.7%
22,O=C(Cn1c(SCC(=O)Nc2ccc(F)cc2)nc2ccccc21)NCc1ccc(F)cc1,0.61%
23,N#Cc1ccc(C(=O)Nc2cc3nn(-c4ccccc4)nc3cc2Cl)c(F)c1,26.6%
24,CCOC(=O)C1CCN(S(=O)(=O)c2cc(Br)cc3c2N(C(=O)CC)CC3)CC1,4.4%

row,SMILES,inhibition
1,CCCC(=O)NCC1(N(C)C)CCCCC1,-21.9%
2,CN1CCN(C(=O)c2ccc3c(c2)N(Cc2ccc(C(F)(F)F)cc2)C(=O)c2ccccc2S3)CC1,-17.3%
3,Cn1c(=O)c2c(nc(N3CCN(c4ccc([N+](=O)[O-])cc4)CC3)n2C)n(C)c1=O,active: 33.5%
4,COc1ccc(OC)c(C2C(C(=O)Nc3ccc(C)cc3)=C(C)Nc3nnnn32)c1 (stereo unspecified),3.61%
5,Cn1cccc1-c1cc(C(=O)N/N=C/c2ccc(F)cc2)[nH]n1,active: 60.6%
6,CN(CC(=O)Nc1cccc(F)c1)S(=O)(=O)c1ccc2c(c1)n(C)c(=O)c(=O)n2C,-1.97%
7,CSc1cccc(NC(=O)c2cc3c(COC(C)=O)cnc(C)c3oc2=O)c1,-9.2%
8,O=C(CC(c1cccs1)N1Cc2ccccc2C1=O)Nc1ccc(F)cc1 (stereo unspecified),-4.08%
9,COc1cc(CNC(=O)c2cc3n(n2)CCCN(Cc2cccc(F)c2)C3=O)cc(OC)c1OC,9.84%
10,CC(=O)c1cccc(NC(=O)CSc2ncc3c(n2)-c2cc(Cl)ccc2N(Cc2ccccc2)S3(=O)=O)c1,-4.8%
11,COc1ccc(S(=O)(=O)NCc2nc(-c3ccccc3)no2)cc1,12.4%
12,O=C(CSc1nc2ccccc2n1Cc1cccc(F)c1)NCc1ccccc1,12.3%
13,Cc1cc(/C=C2\SC(=Nc3ccc(F)cc3)NC2=O)c(C)n1-c1ccc(S(N)(=O)=O)cc1,active: 38.4%
14,CCOC(=O)c1sc2ncn(CC(=O)Nc3ccc(OC)c(Cl)c3)c(=O)c2c1C,4.8%
15,COc1ccc(C(CNC(=O)c2oc3c(Cl)cccc3c2C)N2CCCC2)cc1 (stereo unspecified),active: 39.1%
16,Cc1ccc(C(=O)O/N=C(\N)c2ccc(Br)cc2)cc1,active: 33.6%
17,CC(C)CCNC(=O)Cn1nc(N2CCN(c3ccccc3)CC2)ccc1=O,0.484%
18,Cc1ccccc1Cn1c2ccccc2c2cnn(CC(=O)NC3CCCCCC3)c(=O)c21,-8.03%
19,COc1ccc(CNC(=O)CSc2nnc(C)c3c(C)n(-c4ccccc4)nc23)c(OC)c1,2.18%
20,CCc1ccc2ncc3c(-c4ccc(C)cc4)nn(CC(=O)NCc4ccccc4)c3c2c1,3.11%
21,O=C(c1cc2c(Cl)nc3ccccc3c2s1)N1CCCCC1,12%
22,COc1ccc(Cn2ccc3nc(C)c(C(=O)NCc4ccc(SC)cc4)cc3c2=O)cc1,-13.2%
23,Cc1ccccc1NC(=O)Cn1nc(-c2ccccc2)nc(Cc2ccccc2)c1=O,1.47%
24,Cc1ccc(CNS(=O)(=O)c2cnc(N)nc2)cc1,-1.18%

row,SMILES,inhibition
1,CSc1ccc(/C=C(\C(=O)O)c2ccc(S(=O)(=O)N3CCCC3)s2)cc1,active: 35.5%
2,Cc1ccc(NC(=O)c2c(C)oc3ccc(O)c(CN4CCOCC4)c23)cc1,-0.733%
3,CCCCNC(=O)NCC(=O)Nc1ccc(F)c(F)c1,active: 40.1%
4,CCC(=O)N1c2ccccc2CC1C(=O)NCc1ccc(CC)cc1 (stereo unspecified),14.7%
5,Cc1ccc(-c2cnc(-c3ccncc3)o2)cc1,active: 32.3%
6,Cc1ccc2c(c1)c1c(c(=O)n(-c3ccccc3)c(=O)n1Cc1ccccc1C)n2C,0.743%
7,COc1ccc(NC(=O)Nc2nnc(N3CCCC3)s2)cc1,9.45%
8,CN1CCN(C(=O)c2cnn(-c3ccc(F)cc3F)c2C2CCN(C(=O)OC(C)(C)C)CC2)CC1,-7.73%
9,COc1ccc(Cn2c(=O)c3oc4ccccc4c3n(CC(=O)Nc3c(C)cccc3C)c2=O)cc1,-2.42%
10,Cc1oc2cc3oc(=O)c(CCC(=O)NCCc4ccccc4F)c(C)c3cc2c1C,12.1%
11,Cc1ccc(OCCSc2nnc(-c3cccs3)o2)cc1,-20.2%
12,COc1ccc(-c2nc3c(c(SCc4ccc(Br)cc4)n2)Cc2c(CO)cnc(C)c2O3)cc1,-2.28%
13,Cc1ccc(-n2ncc(C(=O)NCc3ccc4c(c3)OCO4)c2C2CCN(C(=O)OC(C)(C)C)CC2)c(C)c1,15.8%
14,Cc1ccccc1OCC(=O)Nc1ccc(S(=O)(=O)N(Cc2ccccc2)c2ccccc2)cc1,0.755%
15,COC(=O)c1ccc(NC(=O)c2cc(S(=O)(=O)N3CCOCC3)cn2C)cc1,-8.17%
16,CC(=O)Nc1ccc(NS(=O)(=O)c2c(C(=O)N3CCCCCC3)c(C)n(C)c2C)cc1,10.7%
17,CN(C)c1ccc(NC(=O)Cn2c(SCc3ccc(F)cc3)nc3ccncc32)cc1,-5.02%
18,COc1ccc(CCNC(=O)CSc2cn(CCNC(=O)c3c(F)cccc3F)c3ccccc23)cc1OC,0.757%
19,COc1cc2c(cc1OC)n(CC(=O)c1cc(C)ccc1C)c(=O)n1nc(CCn3nc(C)cc3C)nc21,21%
20,CC1=C(C(=O)Nc2cccnc2)C(c2ccc(C)cc2)n2nc(SCc3ccccc3F)nc2N1 (stereo unspecified),10%
21,Cc1c(CCNC(=O)c2ccc(C(C)(C)C)cc2)sc2nc(-c3ccc(F)cc3)nn12,-11.8%
22,CCc1cc2c(cc3c(=O)n(CCCC(=O)NCc4cccc(Br)c4)ncn32)s1,-5.42%
23,Cc1ccc(NC(=O)C(CC(C)C)N2Cc3ccccc3C2=O)cc1F (stereo unspecified),5.98%
24,CNS(=O)(=O)c1cn(CC(=O)N2CCN(c3ccc(C(C)=O)cc3)CC2)cc1S(=O)(=O)NC,-2.56%
